Experimental data from PMC10726135.
The list shows a part of the results. At the low end of the ranking the order means little. Measured with an extract: partners may take part in the binding.

Target: T1, HNF4alpha8 (COS-7 nuclear extract) (UniProt P41235-5)
T1 sequence: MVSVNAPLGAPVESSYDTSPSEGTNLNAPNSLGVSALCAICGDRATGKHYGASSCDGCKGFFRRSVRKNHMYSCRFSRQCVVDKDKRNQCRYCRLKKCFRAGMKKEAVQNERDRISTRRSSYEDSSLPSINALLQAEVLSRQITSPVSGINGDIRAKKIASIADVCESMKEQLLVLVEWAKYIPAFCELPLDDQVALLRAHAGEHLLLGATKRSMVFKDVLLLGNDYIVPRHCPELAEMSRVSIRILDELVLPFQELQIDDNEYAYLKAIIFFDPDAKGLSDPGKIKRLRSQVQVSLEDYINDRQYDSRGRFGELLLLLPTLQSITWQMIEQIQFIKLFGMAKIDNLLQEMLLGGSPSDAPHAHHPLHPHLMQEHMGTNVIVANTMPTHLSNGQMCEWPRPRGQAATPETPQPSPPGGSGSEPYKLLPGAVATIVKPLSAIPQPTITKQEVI
Assay: protein-binding microarray
Details: COS-7 nuclear extract on double-stranded Agilent 4x180k PBM; binding buffer, salt, pH and temperature not given; high values mean tight binding; double strand, one strand shown; sequences stand for … in …GCCTAGGGAGATTAGAGTATCGGTCGA

Row | Sequence | binding signal (log2 normalized intensity)
1 | ACATCCTGGGTTATGATCCTGGCTCTCCCA | -0.874
2 | ATGGGGGCTCAGGGCCTCTCTTCTTGTAAT | 0.531
3 | TCTGGTTTGACCTTAAGTCAGAAGAACTGA | 3.25
4 | CTAAAACCCATATCTGACTGATGCTAAAGT | 0.684
5 | AGCCTTTTGTCTGGTGGAGTAGAGCACATT | 0.578
6 | AGGTCAGTCGACCCTCTCTGGATGCAGGTC | 1.47
7 | TAATGAAATACCACTGCACACATAATAGAT | -1.3
8 | CATCCCACATTCCACAGACTCACTTCCAGA | -1.23
9 | GGTCGGAAGGGAGGTGCCATGTCACCGCAC | -1.19
10 | GACCCAAGAAATAAAAACAGCTGGGTTCCA | -1.39
11 | TTGCCCCTTTGACCCTCGGGCCTCCCTAGA | 4.81
12 | TTTCAGACTATTTTATTTTCCCCCTTTGAA | 3.99
13 | GCAATATGATAACCCAGTGCAATGCCTAAA | -1.26
14 | AAAACCACTGTGCTCTGAAAAGTGAACTGT | 2.69
15 | CATGGTTTGCAAGACCTCTGAGAACTGGCC | 0.0358
16 | CCCACCCCCAAATCCCCTTCAAGTCTGAGA | 5.01
17 | TTCTTTCCCTCCAGCCCACTTACCACCCAC | 4.27
18 | AATTTGACCTCATTTGCTCCCAGTGCACAC | 1.83
19 | GGGAAACACAGACTCCAAAGAATGGAAGGC | -1.01
20 | AGGGCAAGGGACAGGGGCCCAAGATAAAGG | -1.13
21 | GTTGACCACCTGCCCCAGGAATGCCTTTTC | 1.87
22 | CACTTCCCGAGTGAGGCAATGCCTCGCCCT | -0.664
23 | ACCAAGGGTCATGCTGGTCTCCTTGCCCCA | 2.18
24 | GGGTGGCCCTCTCCCGGGGAGGTCAACCAG | 3.41
25 | AGAAGCCAGGGACCAGGAAGGCAGTAAGAG | -1.44

Row | Sequence | binding signal (log2 normalized intensity)
26 | AAAAGGCCGTTCAAAGGCAGCCTTCGTTTG | -1.32
27 | ACTGCACACCGTCCAGAGGCTCCAAAGGAC | -1.21
28 | GCCACCCTCCTCTCTGGGTCAAAGGTCATC | 10.2
29 | GGCAGGGCCAGATAAAGCAGGTTGTACCTT | 3.15
30 | ATGATACCCCAGAGTACAGCACTTTGGCGT | 1.23
31 | GTACTTAAAAATGCCTTTCATCTTTGAGAA | 0.583
32 | TTCATCATGATTGTAGCCAAACTCACAGCT | -0.412
33 | ACTCAAGATAGAGGGCTGCCAAAGCTCACA | -1.31
34 | AATACATAAAGTCCAAACCCCTATGTTTAA | 2.54
35 | CTTCATCTTCAATACAGAGTCCAAATTCCT | 4.06
36 | TGGACTAGGCAAAAGACAGTGATTGTCACA | -1.35
37 | CCTGTTCAAACTAAACCTAAAGATTCTAAG | -1.27
38 | GCCCTTTGGATTTAGGCAGTTTTTGATCAA | 2.5
39 | AAGGAAGGTGGGGGCCGCCCATTGGGATCC | -1.37
40 | AGAGATTAAAGGTCAAGCCCAACCAAAGTA | 4.65
41 | GCGGGGCCTCCCAGTGGTATGCCTCTGGGT | -0.645
42 | AGGGGTTAACCTCTATTGACCTTCTTATTT | 3.7
43 | AGAGCAGGTGCTCGGTGAGTGCTTCTTGAA | -1.06
44 | CCAGGGAACAAGGGGTGGATCTCTGTCATG | -1.01
45 | CCTGCCCTTTGCTCCAGAGGAAGATATTAT | 2.04
46 | GATAGATGCTGCTCTCCCACTCCCCCTGCT | 3.68
47 | TGCTTCCAAGTTATGCAGACCTTTGCCCTT | 7.7
48 | AAGTTTGGTAAGCAGACCCCTACTGGGGAT | -1.05
49 | GGCCCCTCTCTTTTATTATATTGAATTCCT | 0.392
50 | TCAGCAGGATTTGTTTGATTTAGGACTTAC | 1.55

Row | Sequence | binding signal (log2 normalized intensity)
51 | CCGTCCCAAGCTGAGGTCTGGTGTCCAGTT | 1.21
52 | GGATTAGCGATCATGGGTGACCCGTTAAGA | 1.44
53 | GGAAAGATCAGCTGAAAACTATGCATGCTG | -1.3
54 | GACATTCCAGCCACTAAGAAGCCCAAGGTT | -1.31
55 | AGGACGTCAGGCAGAGAGGGACTCTGACCC | 6.01
56 | ACTCTCAATTCAAGTATGCACCCTTATCAG | 0.459
57 | GGTAGAGGGACACTGATAACATGAGGATAC | -1.3
58 | CCACTGAGGTCAAGATAAGATACGAAGGGT | -0.296
59 | AATCAGGAGCAAAGGTTGGGGGTGGGGAGG | 0.505
60 | CCAGTTGAGTGCAAAGTCCCTAGAAGGGAT | 1.94
61 | TTCATAACCAAAGGATTATTACATGTTTAC | 0.879
62 | AGAAGCTCCAGAAATACAGAAGCTGCTCTA | -1.26
63 | AATACTCTGAGTAAACACAGACTTTGGAAT | 4.55
64 | CTATCACTGGGAGATAATGCACTGGTGACT | 0.386
65 | TTACAGGTTGCAGTAAAGAAACTGGCTAAA | -1.16
66 | GAAAACAGAGAAGCCGTGGTGCTGTCCAAG | -1.34
67 | GAATTTTGGACAAGGTAACCCCCAACATTC | 3.79
68 | GTTGAATGGACGGACAGGTAACGTAAACAA | -1.06
69 | GAAAATGCAAGGAAATGGATTGCCTCCTAA | -1.22
70 | GGATGTGTGATCTTGGGTAAGCCACTGAAC | 1.3
71 | CTTCCCAGCTGCTGGTCAAAGGGCATTACT | 5.83
72 | CTTCTCTTTGAGTCCCAATCCCCCATCTAT | 4.09
73 | GACCCCTTTCATGAATAAATGACATAGTGA | 2.27
74 | GTGGCCAGGCTGCGTTTCAAAGCCAGGACT | -1.31
75 | TTTTGTGTTAGAGGGTGGTGGGTGAAGGAT | 1.18

Row | Sequence | binding signal (log2 normalized intensity)
76 | ATATGTCTTAAGCTAACATGTACAGTATTG | 0.993
77 | TGATGTTAACACAAGTTATTACCGTGATGT | 1.13
78 | GAATGCTTGTCTAGTAATTGCTACTTCCGG | -0.0902
79 | AGTTTTTACTGGACTTGATCCATTCTACCC | 1.47
80 | AGAAAACGTTCACGTCTCAAGCTTCAGGAG | -1.34
81 | GGACTTGGTAAAGTCAATAATCTAGAAACC | 0.338
82 | CCCTCCCACGCACTCGCCTGACTCCCTGAC | 2.65
83 | CAAGCCCCTGACCAAGGGTCATGCTGGTCT | 3.27
84 | GGTGTGGGGGTGGAGAAGGAAGGGGAAGAT | -1.27
85 | ACCCAAGCGGCCATTTACTGACTAAAGGTT | 2.19
86 | ACACTTAGAGATAAGGTAACAGGCCAAAGG | 1.9
87 | GGATGGCATGTCTCTGGTCGGGGAGGTGTT | 1.18
88 | ATATCTATATGTTTACATATCACTGTACTC | 2.31
89 | GCCTGCATTGGAGGCCCTCTGTTGCTTCAA | -1.37
90 | CCAGCTGGTAAATAAAGGAACTTACGAAGA | -1.25
91 | GAGATTCCTCTGCACAATAAAACTTGGTCG | 0.0287
92 | AAGGGAGTAAAGGTCGTTCTATCGGAGAAC | 4.32
93 | GAAGGTCCTTCACTAAAGTTACAAGATCTT | -0.246
94 | TAACCTTTGGGTGTGTTCAGCGAGGAATGT | 1.71
95 | CCCTTGATCAAAAACTGCCTAAATCCAAAG | -1.42
96 | ACGCTGGTCAGCATCCTGCTTGTGAGACCG | -1.41
97 | CTTTAGTTCAGGGAAGAGGGCACTCAGGCT | -1.29
98 | CGGGGGCCCTTCCCCCCTCTGCAGCCTTAC | 3.05
99 | TCAGCTCATTCAAAGTCCAAAAAGAATCAG | 2.2
100 | CTCCAGACACGGGGATAACACCTGCCTTAG | -1.38

Row | Sequence | binding signal (log2 normalized intensity)
101 | ATTTGTTAAGAACTGGAGTAAAGGTCACTC | 4.84
102 | AGTAAGCATGCCTTACCATTGCTTTCTTCC | -1.49
103 | GTGGTCCTAAAATTGACCTTTGATCACTCA | 10.2
104 | GACCTTCACCAGATACTGAATCTCCCAGTG | -1.29
105 | CACACCTCCCTTGCACCAGTTTCTCAACAG | -1.31
106 | AGCCAAGGAGAGAGGCCTCTAGATAAACCA | -1.41
107 | TGCAAACATTGGTTGCAAAAACAATCAGGG | -1.23
108 | GCTTTTGGGCAGAGACTATGTGGTTTTGTA | 1.34
109 | TAAGGTGGGAATGCTGATCAAGTGTCTCTA | -0.0604
110 | GACCTCTGGACCTCATCTTCCTCCCCAATA | 4.6
111 | CCCCTAGTATATTGGCTTGGCTGTGTCCCT | 1.34
112 | CTCAGGTCAGGGAAGACTGATAAGAAAACT | -1.05
113 | TTTGCGGCCATCTAGCTACAGGAGAACAAA | -1.09
114 | ACCCCTGAATTGGTCATAATTCTCAAACTT | -0.0236
115 | TAAATGAGAAGAAATGATGGGTGCCACTTC | -1.33
116 | GTGAACTGTGACCTGATGACAAAGGTGAGA | 2.24
117 | TCCAAATACGATAATGTCAAACATCTTATA | -0.884
118 | AAGATGCAACCCCGTTTACTTTTGTACACA | 1.74
119 | AGCTGTGTGCTCCTGTAGAATGACCCCCTG | 5.57
120 | TGAGGCCAGTTTTCCCAAAGGAGCTTTATT | -1.1
121 | GTTCAGGGAAGAGGGCACTCAGGCTCTCAG | -1.19
122 | ACAGCACTGACCTTTGAGAGTCAACACTGA | 3.53
123 | AGAGCAAGGGTCCAGATTAGAGCACAATGT | 0.68
124 | CCAGCTGGTAAGTGCAAGGCCCAGCTAGAA | -1.34
125 | GCATTAACATCAACATGGACTTTGAGTCAT | 6.9

Row | Sequence | binding signal (log2 normalized intensity)
126 | CTCTGCTGATAGCATAAAGCTAGGAGACAA | -1.32
127 | CGCTAACTTCCAGATCAAAGGACATTTCTA | 0.989
128 | GGCAAGACTGCCACCTACTGACCAAATGGG | -1.47
129 | TGGAGCCACTATTCATAAAGTTCTCTGGCA | -1.15
130 | TGGTAATCTCTTTTGTGTTAGAGGGTGGTG | 1.51
131 | GCTAAAAGCAGCATCCCTGATAAACCTGTT | -1.36
132 | TTGCAAATAAAAGTTATCACCATCAGATCT | -1.38
133 | CAGCTGGGGCCCAGGTCGAAGTTTATGTTT | 2.45
134 | CCACAGAAACGCAGTCCTGAAAACACACAT | -1.34
135 | GGAATGTCTGACCAACCTGTCCAAAGGTCA | 8.5
136 | TTGGCAGATTAGATATATCTGTACTCAAAC | 0.452
137 | AGAAGACAAAACAGCGTACTGTGCTAAAGA | -1.27
138 | TTCCCTTTGATCTTTCCCTTCCTGGCCAAC | 1.15
139 | AGAGCCTAGTTCATTGCAATTACTCAATAA | -1.28
140 | CCCCCGGACCCAAAGTAAACAAAGATACTC | 2.88
141 | GAGTAAATACGAACCGTCGTAATGGCTAAG | -1.14
142 | TAACTTGAATTGATTGCCAAGAGGGAGGGG | -1.38
143 | AGGATGGAATGCTGAAGGGAAGGCTGCCGT | -1.14
144 | AACGAGATGGTCAAGGATCTGGCCAGGCCT | -1.37
145 | AGTGGTTAAGTTTTCGAGGAGTCAAAAGGT | 1.41
